Data on 2 molecules can be found in patent US20240158497A1.

Several values for one entry are separate records, joined by “and”; a condition that tells them apart may be missing. Equal values may be shown once.

For the assay, the target named is wild-type human GP130 on HEK293.STAT3.Luc.GP130 reporter cells (human), P40189. In words: cell-based or functional assay.
Sequence of wild-type human GP130 on HEK293.STAT3.Luc.GP130 reporter cells (human), P40189 (P40189 23-918): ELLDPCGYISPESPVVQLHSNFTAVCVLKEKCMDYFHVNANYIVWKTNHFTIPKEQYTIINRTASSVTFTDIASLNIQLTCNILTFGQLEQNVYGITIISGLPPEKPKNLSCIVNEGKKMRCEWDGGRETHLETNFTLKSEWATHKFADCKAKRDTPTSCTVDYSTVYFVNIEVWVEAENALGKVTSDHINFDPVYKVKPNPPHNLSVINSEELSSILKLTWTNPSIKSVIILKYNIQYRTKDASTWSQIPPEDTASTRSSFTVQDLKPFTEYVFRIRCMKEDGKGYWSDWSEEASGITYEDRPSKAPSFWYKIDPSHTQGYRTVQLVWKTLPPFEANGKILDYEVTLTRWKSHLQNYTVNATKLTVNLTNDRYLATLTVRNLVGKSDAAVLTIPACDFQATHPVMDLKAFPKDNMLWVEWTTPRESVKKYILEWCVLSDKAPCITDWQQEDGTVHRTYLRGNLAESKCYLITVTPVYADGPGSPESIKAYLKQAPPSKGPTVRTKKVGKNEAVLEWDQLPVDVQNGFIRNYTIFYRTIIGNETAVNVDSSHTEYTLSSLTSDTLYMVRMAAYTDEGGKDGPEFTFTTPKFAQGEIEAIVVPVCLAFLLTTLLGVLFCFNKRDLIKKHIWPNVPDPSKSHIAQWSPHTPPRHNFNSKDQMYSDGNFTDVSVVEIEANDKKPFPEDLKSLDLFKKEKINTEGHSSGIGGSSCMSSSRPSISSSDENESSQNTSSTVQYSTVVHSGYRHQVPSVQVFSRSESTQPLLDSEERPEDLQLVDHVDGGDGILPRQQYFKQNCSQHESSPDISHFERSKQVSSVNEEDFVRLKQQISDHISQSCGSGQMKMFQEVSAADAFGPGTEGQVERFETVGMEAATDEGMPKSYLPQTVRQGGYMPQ

B1: bsAb21237D (bispecific antibody, V domains shown)
VH 1: EVQLVESGGGLVQPGGSLRLSCAASGFTFSNYGMTWVRQAPGKGLEWVSAITGGGGSTYYSNSVKGRFTISRDNSKNTVYLRMNSVRAEDTAVYYCAKYKWNFVDDWGQGTTVTVSS
VH 2: QVQLVESGGGLVKPGGSLRLSCAASGFTFSDYYMTWIRQTPGKGLDWVSYISSSGTNKYNADSVKGRFTISRDNAKNSLYLQMNSLRAEDTAVYYCVRDPPWGMDVWGQGTTVTVSS
VL: [letters of about 100 residues left out]
B1: the Assay Buffer, % activity turned out to be 100%; the EC50 (M), STAT3-luciferase activation of HEK293.STAT3.Luc.GP130.hLEPR (Y1141F) cells, 10 nM leptin worked out at 2.46e-09 M; the RLU, Assay Buffer (no soluble protein) is 44900 RLU and 38100 RLU.

B2: bsAb21236D (bispecific antibody, V domains shown)
VH 1: QVQLQESGPGLVKPSQTLSLTCTVSGGSISSGGDYWSWIRQLPGKGLEWIGYIYYSGSAYYNPSLKSRGTISIDTSKNQFSLKLTSVTAADTAVYFCVKLRFLEWFLGGWFGPWGQGTLVTVSS
VH 2: B1 VH 2
VL: [letters of about 100 residues left out]
On to B2, for which the Assay Buffer, % activity is 100%; the RLU, Assay Buffer (no soluble protein) is 48900 RLU and 42200 RLU.
